# From the supplement of paper PMC3724861
# The other results are listed elsewhere or left out.
# System: T1, Caupolican (Caup) homeodomain DNA-binding domain
# T1 sequence: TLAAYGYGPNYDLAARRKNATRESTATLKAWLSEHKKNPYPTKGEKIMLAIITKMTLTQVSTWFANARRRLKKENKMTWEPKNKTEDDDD
# Assay: PBM E-score (8-mer, recovered from the published 9-mer minima) (E-score (dimensionless, -0.5 to 0.5)); Drosophila protein; higher = stronger relative binding preference, active = 0.31 or more
# How it was run: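 An enrichment score, with higher meaning stronger, expresses relative binding preference for each short DNA word. The protein used was Caup's homeodomain DNA-binding domain (residues 214-303), produced by in vitro transcription and translation and tested at 100 nM on custom-designed protein binding microarrays. The 8-mer values were recovered from published 9-mer scores, each equal to the lower of its two constituent 8-mer scores.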
row,Sequence,PBM E-score
1,CAATGCTC,inactive: -0.00508
2,ATTGTAAG,inactive: 0.0993
3,AATGCCGC,inactive: -0.139
4,CGGCACCG,inactive: -0.175
5,GAACAACC,inactive: 0.265
6,CACGACTC,inactive: 0.0628
7,TAGCTAGA,inactive: -0.0197
8,AAGTACGG,inactive: 0.0736
9,AACCCGGG,inactive: -0.179
10,GAGGGTGA,inactive: -0.152
11,AAGTCCCC,inactive: -0.175
12,CATAGTAG,inactive: 0.15
13,CTATGAGC,inactive: -0.0183
14,CTTATAGC,≥ 0.0708
15,CATCCAAC,inactive: 0.123
16,AGGTACCC,inactive: -0.141
17,ATATCATA,inactive: 0.238
18,ATATGCGC,inactive: 0.106
19,GACGTTGC,inactive: -0.105
20,ATGAGGCA,inactive: -0.119
21,GGCCGTGA,inactive: -0.072
22,ATAGGGGA,inactive: -0.137
23,GCAGTCGC,inactive: -0.226
24,AGTATGAA,inactive: 0.131

row,Sequence,PBM E-score
1,AGTTTGAG,inactive: -0.0429
2,AGCCAGTC,inactive: -0.0838
3,CCGTGGGC,inactive: -0.294
4,AGAAGCGG,inactive: -0.223
5,ACTAAGCT,inactive: -0.117
6,CACCACCG,inactive: -0.148
7,AGACTGCC,inactive: -0.111
8,ACTCGGAC,inactive: -0.00105
9,ATGACGAA,inactive: 0.132
10,CTACCAGC,inactive: 0.0565
11,ACTACAGG,inactive: 0.199
12,CAGAGGGC,inactive: -0.209
13,TCGAGAGA,inactive: -0.0866
14,GCACGACA,inactive: 0.198
15,GTGATTAA,inactive: 0.15
16,GATTCTAC,inactive: 0.0914
17,ACGGAATC,inactive: 0.0546
18,AAAAGTCG,inactive: -0.0817
19,GCGGTTCC,inactive: -0.102
20,AAACGCGT,≥ 0.0308
21,AACTCCAT,inactive: -0.0233
22,CGGCCGCA,inactive: -0.181
23,AAACCAGT,inactive: 0.0724
24,CAATCTCA,inactive: 0.102

row,Sequence,PBM E-score
1,CGAACTCA,inactive: -0.0882
2,ATACTCCA,≥ 0.113
3,CCCGGTTA,inactive: -0.155
4,ACCCTGTG,inactive: 0.0385
5,GCAGCCAC,inactive: -0.22
6,CGATCGTA,≥ 0.11
7,AAGAATGG,inactive: -0.0161
8,CTGCCCTA,inactive: -0.163
9,TAGGAGCA,inactive: 0.0236
10,AATATTTC,inactive: 0.0671
11,AGTTTGCG,inactive: -0.0264
12,CTAAGCCC,inactive: -0.193
13,GATGTCGA,inactive: 0.217
14,CGAGGGAC,inactive: -0.152
15,CTACCTAG,inactive: -0.0794
16,AAGGTAAT,≥ 0.125
17,AACTGGCG,inactive: -0.129
18,ACAAAATG,inactive: 0.252
19,GGTAGCGA,inactive: -0.0452
20,CTCGTTCC,inactive: -0.0488
21,CTACAAGC,inactive: 0.29
22,CTAAGGTC,inactive: -0.129
23,GGACGAGA,inactive: -0.121
24,CATGGGCG,inactive: -0.0923

row,Sequence,PBM E-score
1,TCCTATCA,inactive: 0.0638
2,ATTCTATA,inactive: 0.148
3,ATACGCTG,inactive: -0.0697
4,ATGTCATG,active: 0.353
5,TATACACA,inactive: 0.289
6,GCAAGCAC,inactive: -0.0767
7,AAGAACTC,inactive: 0.00538
8,GCCTGAGA,inactive: -0.145
9,CAGTTAGA,inactive: -0.0838
10,ATTCGTAA,inactive: 0.104
11,ATCATGTA,active: ≥ 0.435
12,GATACCGC,inactive: -0.0341
13,CGTCACAA,inactive: 0.089
14,CGAGACCA,inactive: 0.0466
15,AGCGGGAA,inactive: -0.0954
16,CCCCTCTC,inactive: -0.3
17,ATGATCGC,inactive: 0.0374
18,CTTCCTCA,inactive: -0.122
19,AATTGATA,inactive: 0.11
20,ATGACACA,inactive: 0.259
21,CAGTGGAA,inactive: -0.116
22,CCGCATCA,inactive: -0.06
23,GTTACGCA,inactive: -0.0688
24,CAGTACCA,inactive: 0.0789

row,Sequence,PBM E-score
1,AGATCCTG,inactive: -0.045
2,CCAGAGCA,inactive: 0.007
3,GATTAGGC,inactive: 0.0729
4,ACGATTAC,inactive: 0.192
5,CATGGCCA,inactive: -0.0519
6,AATTGACG,inactive: 0.004
7,CGGATACA,inactive: 0.211
8,CCTTAACC,inactive: -0.0723
9,CGGCGAAC,inactive: -0.137
10,TGATGCCA,inactive: 0.00666
11,CGGTTGTA,inactive: 0.209
12,ATTCAAAA,inactive: 0.0259
13,AAAATAAA,inactive: 0.0878
14,CGGTCGAC,inactive: -0.153
15,GTGTGCGA,inactive: -0.105
16,GTTGAGGA,inactive: -0.0534
17,ATCGAGTA,inactive: 0.0622
18,AGTTATGA,inactive: 0.0971
19,TCCACTCA,inactive: 0.0429
20,CTTTGTGC,inactive: 0.0421
21,ATACCCTC,inactive: -0.0894
22,CCGCATTA,inactive: 0.0385
23,AACGGACG,inactive: -0.055
24,CGCGGCGA,≥ -0.0924

row,Sequence,PBM E-score
1,AGCCGGGA,≥ -0.141
2,ACGGTTCT,≥ 0.0266
3,ATGTCAGC,inactive: 0.289
4,ATGTTCTC,inactive: 0.281
5,CTACTTTC,inactive: 0.0564
6,GTTAATTA,inactive: 0.203
7,CTTTAACA,inactive: 0.158
8,AGAGTGAT,inactive: 0.123
9,GAAACGTC,inactive: -0.039
10,CTATTAGA,inactive: 0.059
11,ATGGTCTA,inactive: 0.0474
12,CCAATAGG,inactive: 0.00699
13,TCTGAACA,inactive: 0.242
14,ATACAGAT,≥ 0.222
15,CTACGAAC,inactive: 0.113
16,CCGGCCCA,inactive: -0.219
17,AAGTTACC,inactive: 0.148
18,GTGCCAAA,inactive: -0.0529
19,CCCGATAC,inactive: -0.088
20,AAATATCA,inactive: 0.134
21,AAGGGTTG,inactive: 0.0698
22,CTCGCATA,inactive: -0.0565
23,ACTAGTCA,inactive: 0.162
24,AAACTGTC,inactive: 0.0873
